Data on one molecule can be found in paper PMC9954413 (Cancers, 2023).

In the test the target is T1, Arkadia (RNF111) RING, residues 927-994 (Ark RING, 68 aa) (human, UniProt Q6ZNA4 927-994).
T1 construct: human Arkadia (RNF111), residues 927-994, 68 aa; also called wt Ark RING; source: expressed and purified as described elsewhere [31]
T1 sequence (looked up): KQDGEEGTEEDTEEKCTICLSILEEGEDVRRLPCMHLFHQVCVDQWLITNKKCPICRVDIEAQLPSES
Description: ITC; 1-3 mM E2 in the syringe injected (2 uL, 15-19 injections) into 100-300 uM Arkadia polypeptide in the cell; 25 °C; 50 mM KH2PO4, 50 mM K2HPO4 pH 7; single-site model. Particulars: both partners purified. For orientation: ITC needs no label: the signal is the heat of the interaction.

B1: UbcH7 K96S (enzyme)
chain: not shown
notes: human UbcH7 (UBE2L3) with K96S (KPA motif changed to SPA); also called mutant UbcH7; source: site-directed mutagenesis; expressed and purified as the wild type
One may read the stoichiometry N as a count of units in the complex or per binding partner. As to B1, the dH is -0.9 kcal/mol and the “stoichiometry N” value was 1.
